In the supplement of paper PMC9588766:
Whole data set: some 1,900 compounds, median “cell viability of compound + 1 nM pemigatinib relative to pemigatinib-only (DMSO) wells” near 0.95, cut for the lowest 2% near 0.22. Some of the results follow.

tested on: PDC-DUC18828; assay: cell viability of compound + 1 nM pemigatinib relative to pemigatinib-only (DMSO) wells (fraction); PDC-DUC18828 is a patient-derived cholangiocarcinoma cell line; higher = less growth inhibition; details: first compound 1 µM; pemigatinib concentration 1 nM; 72 h
Procedure: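 Selleck Bioactive library screen in the patient-derived FGFR2 fusion-positive ICC cell line PDC-DUC18828 (500 cells/well). Each compound was tested at 1 uM with 1 nM pemigatinib, in triplicate, for 72 h. Viability was read by CellTiter-Glo and normalised to plate DMSO controls. Value is the paper's averaged normalised viability.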

Row | SMILES | cell viability
1 | CNCc1cc(-c2ccccc2F)n(S(=O)(=O)c2cccnc2)c1 + CCN1C(=O)N(c2c(F)c(OC)cc(OC)c2F)Cc2cnc3[nH]c(CN4CCOCC4)cc3c21 [pemigatinib] | 1.03
2 | COc1c2ccoc2cc2oc(=O)ccc12 [Bergapten] + CCN1C(=O)N(c2c(F)c(OC)cc(OC)c2F)Cc2cnc3[nH]c(CN4CCOCC4)cc3c21 [pemigatinib] | 0.948
3 | CCCCCCCCCCCC1=C(O)C(=O)C=C(O)C1=O [Embelin] + CCN1C(=O)N(c2c(F)c(OC)cc(OC)c2F)Cc2cnc3[nH]c(CN4CCOCC4)cc3c21 [pemigatinib] | 0.936
4 | O=C1CCc2ccc(OCCCCN3CCN(c4cccc(Cl)c4Cl)CC3)cc2N1 [Aripiprazole] + CCN1C(=O)N(c2c(F)c(OC)cc(OC)c2F)Cc2cnc3[nH]c(CN4CCOCC4)cc3c21 [pemigatinib] | 0.977
5 | CC1(C)CNc2cc(NC(=O)c3cccnc3NCc3ccncc3)ccc21 [Motesanib Diphosphate (AMG-706)] + CCN1C(=O)N(c2c(F)c(OC)cc(OC)c2F)Cc2cnc3[nH]c(CN4CCOCC4)cc3c21 [pemigatinib] | 0.946
6 | CC[C@@H]1/C=C(\C)C[C@H](C)C[C@H](OC)[C@H]2O[C@@](O)(C(=O)C(=O)N3CCCC[C@H]3C(=O)O[C@H](/C(C)=C/[C@@H]3CC[C@@H](O)[C@H](OC)C3)[C@H](C)[C@@H](O)CC1=O)[C@H](C)C[C@@H]2OC [Ascomycin (FK520)] + CCN1C(=O)N(c2c(F)c(OC)cc(OC)c2F)Cc2cnc3[nH]c(CN4CCOCC4)cc3c21 [pemigatinib] | 0.947
7 | COC(=O)C1=C(C)NC(C)=C(C(=O)OCC(C)C)C1c1ccccc1[N+](=O)[O-] (stereo not given) [Nisoldipine] + CCN1C(=O)N(c2c(F)c(OC)cc(OC)c2F)Cc2cnc3[nH]c(CN4CCOCC4)cc3c21 [pemigatinib] | 1.05
8 | Oc1cc(O)c(Cl)cn1 [Gimeracil] + CCN1C(=O)N(c2c(F)c(OC)cc(OC)c2F)Cc2cnc3[nH]c(CN4CCOCC4)cc3c21 [pemigatinib] | 0.96
9 | COc1ccc2cc(OCC3(C(=O)O)CN(C(=O)c4ccc(F)cc4)C3)ccc2c1 + CCN1C(=O)N(c2c(F)c(OC)cc(OC)c2F)Cc2cnc3[nH]c(CN4CCOCC4)cc3c21 [pemigatinib] | 0.967
10 | COCCOc1ccc2c(c1)ncn2-c1ccc2cccc(N3CCC(N)CC3)c2n1 + CCN1C(=O)N(c2c(F)c(OC)cc(OC)c2F)Cc2cnc3[nH]c(CN4CCOCC4)cc3c21 [pemigatinib] | 1.11
